Among the data in PubChem BioAssay (NCI) are TGI and GI50 values, retold here.

“And” between values parts separate entries of the source, which are not always exact repeats. Equal entries are not always repeated.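 A five-concentration, 48-hour dose response in 96-well plates underlies each endpoint, interpolated linearly between surrounding concentrations. Abbreviation: GI50, concentration required for 50% inhibition of growth. TGI denotes the concentration required for complete inhibition of growth.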

For the test, the system named is NCI-H322M lung. As to the kind of experiment: growth of human tumour cells (NCI), 48 h.
`Cc1ccc2c(c1)-c1c(C#N)c(N)nc(-c3ccccc3)c1CCS2(=O)=O`: the TGI was above 100 µM. Same read-out and setting: the value for `CC(C)(C)OC(=O)N/N=C(/N)Cc1ccccc1` was above 100 µM; that for `O=C1NC2C=CN(Cc3ccccc3)C=C2C(=O)N2CCCC12` (configuration not stated) was above 100 µM. Consider `COc1cc(C2CC(c3ccc(N(C)C)cc3)=NN2C(C)=O)cc(OC)c1OC` (configuration not stated), for which the GI50 is 4.37 µM and the TGI is above 82 µM. `c1ccc2cc(CNCCOCCOCCNCc3ccc4ccccc4c3)ccc2c1` came in with a TGI of 3.38 µM.

Turning to `Nc1nc(N)c(N=O)c(OCC2CCCCC2)n1`, the GI50 was 20.1 µM; the TGI was > 87.9 µM and 78 µM.

`C[C@@H](NC1CCC[C@H]1O)c1ccccc1` (some centres not stated): the TGI is above 100 µM.

With `CC12c3c4cc(Br)cc3Oc3cc(Br)cc(c31)Oc1cc(Br)cc(c12)O4`, the TGI was above 100 µM. `O=c1oc(-c2ccccc2)c(-c2ccccc2)n1-c1ccc(Br)cc1`: the TGI is above 100 µM. `Cc1ccc(S(=O)(=O)NNC2(NS(=O)(=O)c3ccc(Cl)cc3)C(Cl)=C(Cl)C(=O)c3ccccc32)cc1` (configuration not stated) returned a TGI of 30.4 µM. In the case of `Cc1cn2c(/C=N/Nc3ccccn3)c(-c3ccc(Cl)c([N+](=O)[O-])c3)nc2s1`, the GI50 is 26 µM and the TGI is above 50 µM.

For `Cn1cc(-c2ccc(-c3cn(C)c4ccc(Cl)cc34)s2)c2cc(Cl)ccc21`, the GI50 was above 100 µM and the TGI is above 100 µM. On to `Cn1cnc(N2CCCC2)c(C#N)c1=O`, for which the TGI is above 100 µM. On to `CCN1C(=O)N(CC)C2C1NN=c1s/c(=C\c3cc4ccccc4[nH]3)c(=O)n12` (configuration not stated), for which the GI50 is 0.0576 µM and the TGI was above 68.2 µM. Taken in the same sequence, the figures for `Nc1cc(N)c2nc(-c3ccccc3)c(NCc3ccc(F)cc3)nc2c1` were 3.46 µM and 11.6 µM. Taken in the same sequence, the figures for `CCCc1cc(=O)n2c(C(=O)Nc3ccccc3OC)c(C(=O)Nc3ccc(F)cc3)sc2n1` were 45.1 µM and above 160 µM. For `C[C@]12CCc3sc(Nc4ccc(O)cc4)nc3C1=CC[C@@H]1[C@@H]2CC[C@]2(C)C(=O)CC[C@@H]12`, in that order: 6.4 µM and above 100 µM. Consider `COC(=O)C1=C(C)NC(C)=C(C(=O)OC)C1c1cccc(NO)c1`, for which the TGI was above 100 µM.

`CC(=O)NC1CC2Oc3ccc(C)cc3C(C)(O2)C1O` (configuration not stated) yielded a TGI above 100 µM. Take `Cn1ccnc1C(=O)/C=C/c1ccc(CC(=O)Nc2ccc(C(F)(F)F)cc2)cc1`: the GI50 was 2.54 µM and the TGI came out at 6.77 µM. As to `c1ccc(C2OCC(OC3CCCCO3)CO2)cc1` (configuration not stated), the TGI is above 100 µM. In turn, `COc1cc(/C=C2\C(=O)N(Cc3ccccc3)C(c3ccccc3)S2(=O)=O)cc(OC)c1OC` (configuration not stated) returned a TGI above 100 µM.

Molecule `O=C(O)CC1(CC(=O)O)Nc2ccccc2SC1=O` showed a TGI above 100 µM. On the same count and under the same terms, in the case of `COc1ccc(-c2cc(=O)c3cc4c(cc3[nH]2)OCO4)cc1` it was above 100 µM. `CC(c1ccccc1)/[N+]([O-])=C/c1ccccc1` (configuration not stated): the TGI is above 100 µM. On to `CSc1ccccc1C#Cc1ccccc1C#CCCCCO`, for which the GI50 is 12.2 µM and the TGI amounted to 25.1 µM.

In turn, `CCc1nnc(-c2nsc3ccccc23)s1` returned a TGI above 100 µM. Still for that read-out and setting: the value for `COC(=O)C(F)C(Br)C(=O)OC` (configuration not stated) was 30.5 µM; that for `COc1cc2c(cc1OC)C(C)N(C)c1c-2c(OC(C)=O)cc2cc(OC)c(OC)cc12` (configuration not stated) was above 93 µM; that for `CCOc1cc2c(cc1O)/C(=N/NS(=O)(=O)c1ccc(C)cc1)C[C@@H]1[C@@H]2CC[C@]2(C)[C@@H](O)CC[C@@H]12` was above 100 µM. On the same count and under the same terms, the value for `COC(=O)C1=C(O)c2cc3c(cc2[C@H](c2cc(OC)c(OC)c(OC)c2)C1C(=O)OC)OCO3` (some centres not stated) was above 100 µM; that for `O=C(CCCN1CCC2(CC1)CC(=O)N(N1CCCCCC1)C2=O)c1ccc(F)cc1` was above 100 µM.
